Test results as given in PubChem BioAssay AID1508642 (National Center for Advancing Translational Sciences (NCATS), 2021).
Out of some 43,000 compounds screened, about 200 (0.47%) were called active. About 12% were inconclusive and are not listed. Calls come from the whole dose curve; as a rule, active = well fitted cell-killing curve with a large enough effect; inconclusive = small, poorly fitted or top-dose-only effect, or effect the other way; inactive = flat fitted curve, though single readings scatter. Some of the results follow.

test: Cell viability qHTS assay in S16 Pmp22-F2sN cells; settings: S16 Pmp22-F2sN Schwann cells viability, CellTiter-Glo, 24 h; series mostly up to 57.5 µM; activity change, negative = cytotoxicity: at the top concentration; note: nearly all actives have a fitted effect of over 65% in size
How it was run: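 Used to flag compounds lowering reporter output through toxicity, this quantitative HTS measures ATP-based CellTiter-Glo luminescence in S16 Pmp22-F2sN Schwann cells after 24 h compound exposure at 37C.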
% is set by controls: 0 for no effect and ±100 for the full control effect.

SMILES	activity change, negative = cytotoxicity
CCC1CCCCN1CCCNC(=O)c1c(O)nc2ccccn2c1=O (stereo unspecified)	inactive: -2.96%
COc1cccc(CN2C(=O)c3ccccc3Sc3ccc(C(=O)NCCc4ccc(C)cc4)cc32)c1	inactive: 11.2%
Cc1ccc(CSC2=Nc3ccccc3C3=NC(CCC(=O)NCc4cccs4)C(=O)N23)cc1 (stereo unspecified)	inactive: 4.64%
O=C(NCC(c1ccc2c(c1)OCO2)N1CCN(c2ccccc2)CC1)C(=O)Nc1cccc(F)c1 (stereo unspecified)	inactive: -1.74%
CCN(CC)C(=O)CSc1nc2cc3c(cc2c(=O)n1CCCCCC(=O)NCc1ccc(OC)cc1)OCO3	inactive: 1.38%
O=C(NCc1ccc2c(c1)OCO2)c1ccc2c(c1)N(Cc1cccc(Cl)c1)C(=O)c1ccccc1S2=O (stereo unspecified)	inactive: -0.629%
Cc1c(Cl)cccc1NC(=O)C1CCCN(c2nnc(-n3c(C)ccc3C)s2)C1 (stereo unspecified)	inactive: -7.77%
COc1ccc(C2=C(C)C(=O)N(Cc3ccc(C(=O)Nc4cccc(F)c4)cc3)S2(=O)=O)cc1	inactive: -17.1%
CC1CCCN(c2nc3c(S(=O)(=O)c4ccc(C(C)C)cc4)nnn3c3ccsc23)C1 (stereo unspecified)	inactive: 12.8%
Cc1ccc(-c2nc3c(C)cccn3c2Nc2ccccc2C)s1	inactive: 11.9%
Cc1ccc(F)cc1NC(=O)Cn1c(=O)nc(-c2ccccc2F)c2cc(Cl)ccc21	inactive: 8.9%
CCOc1ccc(CCNC(=O)c2cc3c(=O)n(C)c4ccccc4c3n2C)cc1OCC	inactive: 19.5%
COC(=O)c1ccc(NC(=O)CN2CCN(S(=O)(=O)c3ccc(Br)cc3)CC2)cc1	inactive: 7.59%
COc1ccc(S(=O)(=O)N(CC(=O)Nc2cc(C)ccc2OC)Cc2ccccc2)cc1	inactive: -9.89%
CCOc1ccccc1NS(=O)(=O)c1ccc2[nH]c3c(c2c1)CCCCC3	inactive: 17.6%
Cc1ccc(Cn2c(=O)n(-c3ccc(C)cc3)c(=O)c3c2c2cc(C)ccc2n3C)cc1	inactive: 8.99%
N#C/C(=C\c1cccc(F)c1)c1nc(-c2cc3c(ccc4ccccc43)oc2=O)cs1	inactive: 2.82%
CCOc1cc(C2c3c(oc4cc(C)cc(C)c4c3=O)C(=O)N2CCO)ccc1O (stereo unspecified)	inactive: 0.0946%
CSc1cccc(NC(=O)C2CCCN(C(=O)c3cnn(-c4ccc(F)cc4)c3-n3cccc3)C2)c1 (stereo unspecified)	inactive: -20%
O=C(CSc1cn(CC(=O)N2CCCCC2)c2ccccc12)NCc1ccc(F)cc1	inactive: 0.511%
Cc1ccc(OCC(=O)Nc2ccc3nc(SCC(=O)Nc4ccc(C)cc4C)sc3c2)cc1	inactive: 3.46%
CCCNC(=O)c1ccccc1NC(=O)c1nsc2ccccc12	inactive: 9.19%
COc1cccc(NC(=O)CSc2ncc3c(n2)-c2ccc(Cl)cc2N(C)S3(=O)=O)c1	inactive: -7.14%
CC(C)(C)c1ccc(C(=O)NC2(C(F)(F)F)NC(=O)N(CCc3ccccc3)C2=O)cc1 (stereo unspecified)	inactive: 12.3%

SMILES	activity change, negative = cytotoxicity
CCOc1ccc(CNC(=O)C2CCN(C(=O)N3CC(CC)Oc4ccccc43)CC2)cc1 (stereo unspecified)	inactive: 0.937%
Cc1c(Cl)cccc1NC(=O)N1CCOc2ccccc21	inactive: -0.996%
COC(=O)c1sccc1S(=O)(=O)N1CCN(c2ccc(C)cc2C)CC1	inactive: 0.359%
CCOc1ccccc1NC(=O)C(=O)NCCc1sc2nc(-c3ccc(OC)cc3)nn2c1C	inactive: -0.548%
Cc1ccc(NC(=O)NCCOCCn2c(=O)oc3ccccc32)cc1C	inactive: 0.576%
Cc1ccccc1NC(=O)CSc1nc(-c2ccccc2)cn1-c1ccccc1F	inactive: -1.86%
O=C(NC1CCCC1)c1ccc2c(=O)n(Cc3ccccc3)c(SCc3cccc([N+](=O)[O-])c3)nc2c1	inactive: -8.18%
Cc1ccccc1OCc1nc2c3cnn(-c4ccccc4F)c3ncn2n1	inactive: 5.95%
COCCNC(=O)CSc1nc2cc3c(cc2c(=O)n1CCCC(=O)NCc1ccc2c(c1)OCO2)OCO3	inactive: -0.765%
COc1cccc(-n2c(-c3ccccc3F)nc3c(cnn3-c3ccc(C)cc3)c2=O)c1	inactive: -2.22%
CCOC(=O)C(Cc1ccccc1)NC(=O)CCc1c(C)nc2nc(C)nn2c1C (stereo unspecified)	inactive: 16%
Cc1ccc(Cl)cc1N1CCN(C(=O)Cn2c(-c3cccs3)cc3cc(F)ccc32)CC1	inactive: -1.71%
CCOC(=O)Cn1c(=O)cc(C(F)(F)C(F)(F)F)c2c(C)nn(CC)c21	inactive: 6.58%
CCc1ccc(OCC(=O)Nc2cc(-c3ccc(C)cc3)no2)cc1	inactive: -25.7%
COc1ccc(CNC(=O)CSc2ncc3c(n2)-c2cc(Cl)ccc2N(Cc2ccccc2)S3(=O)=O)cc1	inactive: 3.72%
CCOC(=O)CSC1=Nc2ccccc2C2=NC(CCC(=O)NCc3ccc(OC)cc3)C(=O)N12 (stereo unspecified)	inactive: 5.46%
Cc1ccccc1N1CCN(S(=O)(=O)c2ccccc2)CC1	inactive: 2.18%
Oc1c(C(c2ccccc2F)N2CCN(c3ccccc3F)CC2)sc2nc(-c3ccco3)nn12 (stereo unspecified)	inactive: 14.4%
Cc1cc(OCCn2c(CCNC(=O)C3CCCCC3)nc3ccccc32)ccc1Cl	inactive: -28.4%
Cc1ccc(-c2nc(SCC(=O)NCC3CCCO3)c3c(=O)n(C)c(=O)n(C)c3n2)cc1 (stereo unspecified)	inactive: 5.38%
Cc1cc(C)c(NC(=O)CSc2nccn2-c2cccc(Cl)c2)c(C)c1	inactive: 5.93%
COc1ccc(CNC(=O)CCC2N=C3c4ccccc4N=C(SCc4ccccc4F)N3C2=O)cc1 (stereo unspecified)	inactive: -20.5%
COc1ccc(C)cc1NS(=O)(=O)c1ccc2c3c(cccc13)C(=O)N2	inactive: 11.7%
COc1ccccc1Cn1ccn(Cc2ccc(C)cc2)c(=O)c1=O	inactive: -7%

SMILES	activity change, negative = cytotoxicity
CCCn1c(SCC(O)c2ccccc2)nc2ccccc21 (stereo unspecified)	inactive: 0.964%
COc1cccc(CNC(=O)CCCn2ncn3c(cc4occc43)c2=O)c1	inactive: 13.4%
COc1ccc(-c2cc3c(=O)n(CC(=O)Nc4cc(F)ccc4F)ccn3n2)cc1OC	inactive: -0.656%
Cc1nn(-c2ccccc2)c2sc(C(=O)Nc3ccc(Br)cc3)cc12	inactive: -0.175%
O=C1COc2ccc(-c3cc(-c4ccccc4)c4c(n3)-c3ccccc3OC4)cc2N1	inactive: 17%
O=C(NCCc1ccc(Cl)cc1)c1ccc2c(c1)N(Cc1ccc(F)cc1)C(=O)CS2	inactive: -25.4%
COC(=O)c1sc(-c2ccccc2)cc1NC(=O)Nc1ccc(Cl)cc1	inactive: -23.6%
CC1=C(C(=O)NCc2ccccc2C)C2(CCCCCC2)OC1=O	inactive: -5.9%
CCCCN(Cc1cc2ccccc2[nH]c1=O)C(=O)c1cccc(Cl)c1	inactive: -0.297%
O=C(Oc1ccc(F)cc1)c1nc(SCc2ccc(F)cc2)ncc1Cl	inactive: 10.4%
COc1ccc(NC(=O)CCS(=O)(=O)c2ccc3c(c2)oc(=O)n3C)cc1OC	inactive: -0.0665%
Cc1ccc(-c2noc(-c3ccccc3NC(=O)C3CC(=O)N(c4ccc(C)cc4)C3)n2)cc1 (stereo unspecified)	inactive: 12.5%
COc1cc2nc(Nc3cccc(C)c3)nc(N)c2cc1OC	inactive: -26.9%
Cc1ccc(C(=O)NCC(c2ccco2)S(=O)(=O)c2cccs2)cc1C (stereo unspecified)	inactive: -10.5%
CCOc1ccc(-c2cc(NC(=O)Nc3ccc(Cl)cc3)c(C(=O)OC)s2)cc1	inactive: 2.5%
CCCSc1ncc(Cl)c(C(=O)N(Cc2cccc(Cl)c2)C2CCS(=O)(=O)C2)n1 (stereo unspecified)	inactive: -5.56%
CCOC(=O)c1c(NC(=O)CCCOc2ccc(C(C)(C)C)cc2)sc2c1CCCC2	inactive: 1.75%
COc1ccc(OC)c(NC(=O)c2cnc(N3CCCCC3)c3ccccc23)c1	inactive: 8.95%
CCC(=O)N1CCc2cc(S(=O)(=O)NCCC(=O)NCc3ccc(C)cc3)ccc21	inactive: 6.75%
Cc1cccc(C(c2sc3nc(-c4ccco4)nn3c2O)N2CCN(c3ccccc3F)CC2)c1 (stereo unspecified)	inactive: 15%
CCOC(=O)C1CCCN(S(=O)(=O)c2cc(Br)cc3c2N(C(C)=O)CC3)C1 (stereo unspecified)	inactive: 15.6%
CCOC(=O)N1CCC(NC(=O)c2cnn(-c3ccc(C)cc3C)c2C2CCN(C(=O)OC(C)(C)C)CC2)CC1	inactive: 45.1%
CC(=O)c1nn(-c2ccc(OC(F)(F)F)cc2)nc1Nc1ccccc1	inactive: -1.11%
CCc1nn(CCCC(=O)NCc2ccc(C)cc2)c(=O)c2cc3occc3n12	inactive: 15%

SMILES	activity change, negative = cytotoxicity
CCOc1ccccc1N(C)C(=O)Cn1nc(Cc2ccncc2)c2ccccc2c1=O	inactive: 21.2%
O=C(CN1CCCN(Cc2ccc(F)cc2)S1(=O)=O)Nc1ccc2c(c1)OCCO2	inactive: 6.25%
CN(C)c1oc(-c2ccc(COc3ccccc3)o2)nc1C#N	inactive: -29.8%
COc1ccc(N2CCN(S(=O)(=O)CCNC(=O)c3cc(=O)c4ccccc4o3)CC2)cc1	inactive: -1.6%
CC(C)CN(CCNC(=O)c1cn(C)c2ccc(S(=O)(=O)N3CCCCCC3)cc2c1=O)CC(C)C	inactive: -1.56%
COc1cc(NC(=O)Cn2ccn(-c3cc(C)cc(C)c3)c(=O)c2=O)cc(OC)c1	inactive: 8.43%
Cc1cc(C)cc(NC(=O)CSc2nc(=O)[nH]c3c2CCC3)c1	inactive: -7.07%
CCc1ccc(NC(=O)CC2C(=O)N(c3ccc(C)cc3)C(=O)N2C2CCCC2)cc1 (stereo unspecified)	inactive: 0.0863%
CC(C)(C)c1ccc(Oc2nc3ccccn3c(=O)c2/C=C(\C#N)c2nc3ccccc3s2)cc1	inactive: -27.5%
COc1ccc2c(c1)CCc1sc(NC(=O)c3ccc(Br)cc3)nc1-2	inactive: -19.9%
CS(=O)(=O)c1cccc(-c2nnc(NC(=O)c3ccc4c(c3)OCCO4)o2)c1	inactive: 0.541%
Cc1cc(C)cc(NC(=O)CSc2nc3ncccc3[nH]2)c1	inactive: 23.7%
Cc1ccc(NC(=O)C(=O)NCC(c2ccc3c(c2)OCO3)N2CCN(C)CC2)c(C)c1 (stereo unspecified)	inactive: -13.9%
Cc1ccc(NC(=O)C(Cc2ccccc2)NS(=O)(=O)c2ccc3c(c2)CCC(=O)N3)cc1 (stereo unspecified)	inactive: -14.5%
Cc1cccc(NC(=O)CSc2nncn2C)c1	inactive: -1.23%
Cc1ccc(Nc2c(-c3ccc(O)cc3)nc3cccc(C)n23)cc1	inactive: -0.857%
Cc1nc(-c2ccc(Cl)cc2)sc1CCNC(=O)c1cccs1	inactive: -10.8%
CCCN(CCC)CCCNC(=O)Cn1ncc2c3ccccc3n(Cc3ccccc3)c2c1=O	inactive: -15.4%
Cc1ccc(NC(=O)Cc2csc(C)n2)c(C)c1	inactive: 4.6%
Cc1ccc(C(=O)Nc2ccc(OCc3cc(=O)n4c(C)csc4n3)cc2)cc1	inactive: 8.68%
O=C(c1ccc2c(c1)N(Cc1ccccc1)C(=O)c1ccccc1S2(=O)=O)N1CCCCCC1	inactive: -6.66%
CCCOc1ccc(-c2nc(SC)[nH]c(=O)c2C#N)cc1OC	inactive: -11.4%
Cc1ccc(-c2nonc2NC(=O)c2ccc(F)cc2)cc1C	inactive: -15.9%
Cc1cccc(NC(=O)CSc2c(C)cnc3c2c(=O)n(C)c(=O)n3C)c1C	inactive: 7.42%
